Among the data in patent publication US20250276070A1 are Kd, koff and kon values, retold here.

Common to all, as to test: BLI, His-tagged target on Ni-NTA
On the technique in general: In BLI a coated tip is dipped into the sample, and binding shifts an interference pattern.

Test [1] deals with His-tagged MPER peptide (HIV-1).
Test [2] deals with gp120 subunit 93TH057 (HIV-1).
Test [3] addresses soluble CD4.

One may read the Kd as a measure of binding affinity in units of concentration. A high value points to lower affinity. One may read the koff as the first-order rate constant of dissociation. For orientation: kon means a measure of how fast the partners come together. Read a low kon as slow association. T-01 MB IgG2 WT: in test [1], the Kd is under 1 pM, the koff is under 1e-07 s⁻¹ and the kon is 485000 M⁻¹ s⁻¹. Further, in test [2], the Kd was under 1 pM, the koff is under 1e-07 s⁻¹ and the kon was determined as 465000 M⁻¹ s⁻¹.

With T-02 MB, the Kd in test [3] is under 1 pM.
